According to PubChem BioAssay AID488969 (Vanderbilt High Throughput Screening Facility, 2010):
Over roughly 110,000 compounds, “z-score” has its median near -0.1; the highest 2% begin near 2. This is one part of the list. Non-standard residues stand in square brackets, D forms with d. Residues, ends and D or L forms follow the SMILES beside them. *: point of attachment. Phe(4-Me) = Cc1ccc(C[CH](N)C(=O)O)cc1; Bz = O=C(c1ccccc1)*

Each molecule was assayed against Metabotropic glutamate receptor 8 (Rattus norvegicus) (UniProt P70579) (assay: rat mGluR8 modulators via GIRK flux, primary screen, cell-based, thallium flux, HTS (AID 488969)). Conditions: HEK293 rat mGluR8, GIRK (G protein-gated inwardly rectifying potassium channel) thallium flux, FluoZin2; at 10 µM; stronger effect = higher value; submaximal glutamate (EC20) added with thallium.
UniProt P70579, sequence (P70579 whole entry, looked up): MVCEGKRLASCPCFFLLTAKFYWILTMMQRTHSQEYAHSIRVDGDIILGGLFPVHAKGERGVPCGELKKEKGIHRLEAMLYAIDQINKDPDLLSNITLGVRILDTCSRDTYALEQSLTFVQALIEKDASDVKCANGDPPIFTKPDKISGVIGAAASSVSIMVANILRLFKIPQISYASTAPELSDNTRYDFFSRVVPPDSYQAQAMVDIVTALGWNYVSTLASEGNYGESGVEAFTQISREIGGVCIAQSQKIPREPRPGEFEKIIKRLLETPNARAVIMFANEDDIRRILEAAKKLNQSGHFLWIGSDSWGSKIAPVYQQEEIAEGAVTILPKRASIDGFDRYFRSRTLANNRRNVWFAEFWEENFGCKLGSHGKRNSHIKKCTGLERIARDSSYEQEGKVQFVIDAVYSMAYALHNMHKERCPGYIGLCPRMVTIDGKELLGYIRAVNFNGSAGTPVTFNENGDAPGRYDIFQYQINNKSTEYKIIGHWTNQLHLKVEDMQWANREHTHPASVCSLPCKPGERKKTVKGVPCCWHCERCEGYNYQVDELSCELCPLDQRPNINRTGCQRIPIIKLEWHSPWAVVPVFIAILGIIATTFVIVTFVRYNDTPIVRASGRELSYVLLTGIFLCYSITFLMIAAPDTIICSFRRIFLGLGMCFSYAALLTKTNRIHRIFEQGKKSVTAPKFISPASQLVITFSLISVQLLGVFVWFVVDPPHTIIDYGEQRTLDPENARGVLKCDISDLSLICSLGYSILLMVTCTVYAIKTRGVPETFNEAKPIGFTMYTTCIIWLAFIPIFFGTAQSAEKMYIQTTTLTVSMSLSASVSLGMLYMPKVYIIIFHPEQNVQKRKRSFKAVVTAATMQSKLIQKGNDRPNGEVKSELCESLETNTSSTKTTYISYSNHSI

| Structure (SMILES) | z-score |
| --- | --- |
| COc1ccc(C2CC(c3c(Cl)cccc3Cl)n3nc(N)nc3N2)cc1 (stereo not given) | 0.86 |
| CCN(C(=O)[C@@H]1CCCN1C(=O)c1cccs1)c1nc2cc(Cl)ccc2s1 | -0.127 |
| O=C(O)c1ccc(CSc2nc(-c3ccccc3)cc(C(F)(F)F)n2)cc1 | -0.615 |
| Cc1oc(-c2ccccc2Cl)nc1CSCC(=O)NC1CCCC1 | -0.0255 |
| CCOC(=O)C(=O)Nc1cccc(C(=O)OCC)c1 | -0.216 |
| COC(=O)CSc1nnc(Cc2ccccc2)n1-c1ccc(C)cc1 | -0.0209 |
| COc1cc(-c2[nH]nc3c2C(c2ccco2)C(C#N)=C(N)O3)cc(OC)c1OC (stereo not given) | -0.152 |
| OCCN(Cc1ccccc1)Cc1ccc(Cl)cc1 | -0.594 |
| Cc1cccc(NCCC(=O)c2ccc(Br)cc2)c1 | -0.179 |
| Cc1nn(-c2cc(C)c3ccccc3n2)c2c1C1C(C2)C1(C)C (stereo not given) | 0.341 |
| CCOc1ccc(-c2cc(C(=O)O)c3ccccc3n2)c(OCC)c1 | -0.8 |
| CCCCCCn1c(NCC)nc2c1c(=O)[nH]c(=O)n2C | 0.213 |
| CCC(C)(C)NC(=O)C(c1ccc(C)cc1)N(Cc1cccnc1)C(=O)c1csnn1 (stereo not given) | -0.209 |
| CCCN=CC1=C(O)CC(c2ccccc2)CC1=O (stereo not given) | -0.493 |
| Fc1cccc(Nc2cc(-n3cccn3)ncn2)c1 | 0.149 |
| OCCNCc1cc(Br)ccc1OCc1ccc(Cl)cc1Cl | 0.646 |
| COC(=O)c1[nH]c2ccccc2c1NC(=O)CN1CCC(C(N)=O)(N2CCCCC2)CC1 | 0.14 |
| CN(CC(=O)N1CCc2[nH]c3ccc(F)cc3c2C1)CC1OCCO1 | 0.197 |
| CC(=O)Nc1cc(-c2nn(C)c(=O)c3ccccc23)ccc1N1CCCCC1 | -0.0628 |
| Cc1nc2ncnn2c(C)c1CCC(=O)O | 0.399 |
| Cc1ccc(CCNC(=O)CC2Oc3ccc(C)cc3NC2=O)cc1 (stereo not given) | -0.307 |
| O=C(COc1ccc(Cl)cc1Cl)Nc1ccccn1 | 1.52 |
| COc1cc(-c2c(C#N)c(N)nc(SCc3ccncc3)c2C#N)cc(OC)c1OC | 0.108 |
| Cc1occc1C(=O)NCc1ccccc1F | -0.28 |
| CC(=O)N(c1cccc(Br)c1)C1C=CS(=O)(=O)C1 (stereo not given) | 0.499 |
| COCc1[nH]nc2c1C1(CCSCC1)C(C#N)=C(N)O2 | -0.316 |
| COc1ccc(NC(=O)C(Cc2ccccc2)NC(=O)c2ccco2)cc1OC (stereo not given) | 0.151 |
| CCC1CCCCN1C(=O)c1c(-c2ccccc2)noc1C (stereo not given) | 1.08 |

| Structure (SMILES) | z-score |
| --- | --- |
| CCc1cc2c(-c3ccccc3)cc(=O)oc2c(CN2CCOCC2)c1O | -1.01 |
| Cc1ccc(CC(NC(=O)c2ccccc2)C(=O)N2CCCC2C(=O)O)cc1 (stereo not given) (Bz-[Phe(4-Me)]-Pro-OH; configuration not given here) | 0.0412 |
| CCCCCn1c(CN2CCN(CCO)CC2)nc2c1c(=O)n(C)c(=O)n2C | -0.374 |
| O=C(CC1C(=O)NCCN1C(=O)c1ccc(F)cc1)OCc1ccccc1 (stereo not given) | 0.883 |
| CSc1ncc(Cl)c(C(=O)NCc2ccc3c(c2)OCO3)n1 | 0.575 |
| Cc1nnc(NC(=O)CSc2nc(C3CCCCC3)nc3ccccc23)s1 | 0.985 |
| CCC(C)Nc1nc2c(c(=O)n(C)c(=O)n2C)n1Cc1ccc(F)cc1 (stereo not given) | -0.265 |
| COc1cccc(OC)c1OCCOc1ccc(C(=O)c2ccccc2)cc1 | -0.556 |
| O=C(NCCCN1CCOCC1)c1ccccc1-c1ccccc1 | 0.34 |
| CC(C)n1nnnc1SCC(=O)Nc1ccc2c(c1)OCO2 | 0.129 |
| CC(C)CCN(C)c1ccc(/C=N/n2cnnc2)cc1 | -0.415 |
| COC(=O)CCCCCCCCC(O)CN1CCCCC1 (stereo not given) | 0.695 |
| O=C(Nc1ncc(C(F)(F)F)cc1Cl)C1COc2ccccc2O1 (stereo not given) | -0.304 |
| CCCn1c(=O)c2ccccc2n2c(SCc3cc(=O)n4ccsc4n3)nnc12 | -0.363 |
| Cc1ccc(NS(=O)(=O)c2cc(C(=O)O)ccc2Cl)cc1 | -0.156 |
| O=C(CCSc1nc(-c2ccc3c(c2)OCO3)cc(C(F)(F)F)n1)NCc1ccco1 | 0.587 |
| COCCOCCn1cnc2ccccc21 | 0.155 |
| Cc1nn(Cc2ccccc2)c(C)c1CCC(=O)O | -0.441 |
| CCN(C(=O)CCc1nc(-c2ccc(OC)cc2)no1)c1cc(OC)ccc1OC | -0.369 |
| COC1CCCCC1Nc1ccc(C)c(C)c1 (stereo not given) | 0.0883 |
| O=S(=O)(N1CCCCC1)n1c(Cc2ccccc2)nc2ccccc21 | 0.152 |
| Cc1cc(C)cc(NC(=O)CC2NCCNC2=O)c1 (stereo not given) | -0.216 |
| CC(C)(C)C(=O)Nc1cc(NC(=O)C(C)(C)C)cc(C(=O)Nc2cc(C(=O)O)cc(C(=O)O)c2)c1 | 0.00761 |
| C=CCN=C(C)C1=C(O)CCC1=O | 0.228 |
| CCCn1c(NC(=O)c2ccc(C)cc2)nc2ccccc21 | 1.82 |
| Cc1nc(C(=O)Nc2ccc(Cl)cc2Cl)nn1-c1cc(OC(C)C)c(Cl)cc1Cl | -0.00447 |
| CCC(C)Nc1nc(CN2CCOCC2)nc2sc3c(c12)CCC3 (stereo not given) | -0.57 |
